According to PubChem BioAssay (NCI):
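Dose response: 5 concentrations. Exposure: 48 h. Format: 96-well plates. Endpoint: linear interpolation; highest concentration if not reached. Here, GI50 denotes the concentration required for 50% inhibition of growth. TGI: concentration producing complete growth inhibition.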

Tested on: NCI-H322M lung
Assay: NCI anticancer screen, dose series, 48 h

SMILES: C#Cc1nc(C2=C(C)C(O)/C(=N/O)C2)cs1 (configuration not stated)
- GI50: 83.5 µM
- TGI: > 100 µM
